Reference: patent US20220120736A1 (WHITEHEAD INSTITUTE FOR BIOMEDICAL RESEARCH, published 2022)

Biological target: T1, MED1-IDR-mCherry (human, UniProt Q15648 948-1574)
T1 construct: Recombinant from E. coli; Lacks the LXXLL motifs; also called mCherry-MED1-IDR
Assay: in vitro droplet assay, 10 uM each, 125 mM NaCl, 10% PEG-8000

T1 sequence (Q15648 948-1574 limits assumed): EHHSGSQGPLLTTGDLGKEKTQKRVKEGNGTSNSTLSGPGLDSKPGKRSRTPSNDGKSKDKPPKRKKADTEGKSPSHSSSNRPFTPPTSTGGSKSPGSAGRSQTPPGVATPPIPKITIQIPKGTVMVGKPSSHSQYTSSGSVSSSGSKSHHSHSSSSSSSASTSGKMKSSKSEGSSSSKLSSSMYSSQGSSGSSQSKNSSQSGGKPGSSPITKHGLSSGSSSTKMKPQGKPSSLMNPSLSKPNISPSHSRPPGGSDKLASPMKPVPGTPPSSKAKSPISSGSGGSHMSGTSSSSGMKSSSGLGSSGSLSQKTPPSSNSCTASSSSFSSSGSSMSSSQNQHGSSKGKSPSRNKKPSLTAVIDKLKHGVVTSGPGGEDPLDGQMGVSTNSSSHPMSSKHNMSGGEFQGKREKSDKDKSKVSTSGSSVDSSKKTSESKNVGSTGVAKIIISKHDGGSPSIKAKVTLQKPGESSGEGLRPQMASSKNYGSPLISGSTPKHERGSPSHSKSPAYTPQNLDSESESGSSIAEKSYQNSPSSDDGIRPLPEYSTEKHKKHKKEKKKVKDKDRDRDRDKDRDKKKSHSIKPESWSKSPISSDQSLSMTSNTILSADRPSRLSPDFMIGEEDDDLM

binding result: binds
B1: NANOG-GFP (other, not shown: large carriers; small tags and cut ends)
chain: MSVDPACPQSLPCFEASDCKESSPMPVICGPEENYPSLQMSSAEMPHTETVSPLPSSMDLLIQDSPDSSTSPKGKQPTSAEKSVAKKEDKVPVKKQKTRTVFSSTQLCVLNDRFQRQKYLSLQQMQELSNILNLSYKQVKTWFQNQRMKSKRWQKNNWPKNSNGVTQKASAPTYPSLYSSYHQGCLVNPTGNLPMWSNQTWNNSTWSNQTQNIQSWSNHSWNTQTWCTQSWNNQAWNSPFYNCGEESLQSCMQFQPNSPASDLEAALEAAGEGLNVIQQTTRYFSTPQTMDLFLNYSMNMQPEDV
